Assay [1] has as its target HA-TRPM6 (pcDNA5-FRT-TO-HA-TRPM6) (UniProt Q9BX84). As to the kind of experiment: co-IP; HA-tagged channel coexpressed with FLAG-tagged CNNM1-4 in HEK-293T cells, immunoprecipitated overnight with HA-agarose; lysis buffer 50 mM TRIS (pH 7.4), 150 mM NaCl, 1% Igepal 630, 4°C; growth medium with or without 20 mM MgCl2 (Fig 1A).
Assay [2] deals with HA-tagged TRPM7 (pcDNA5-FRT-TO-HA-TRPM7) (mouse) (UniProt Q923J1). The assay is described as above.
In another assay the target is FLAG-TRPM2 (UniProt O94759). As to the kind of experiment: co-IP; overexpressed tagged channel immunoprecipitated from HEK-293 cells, blots for native CNNM3 and CNNM4 (Fig 1B); lysis buffer 50 mM TRIS (pH 7.4), 150 mM NaCl, 1% Igepal 630.
Assay [3] addresses HA-tagged TRPM7 (pcDNA5-FRT-TO-HA-TRPM7) (mouse) (UniProt Q923J1). The assay is described as above.
For assay [4], the target named is T1, FLAG-tagged human CNNM4 (pCMV-4A) (human) (UniProt Q6P4Q7).
T1 sequence: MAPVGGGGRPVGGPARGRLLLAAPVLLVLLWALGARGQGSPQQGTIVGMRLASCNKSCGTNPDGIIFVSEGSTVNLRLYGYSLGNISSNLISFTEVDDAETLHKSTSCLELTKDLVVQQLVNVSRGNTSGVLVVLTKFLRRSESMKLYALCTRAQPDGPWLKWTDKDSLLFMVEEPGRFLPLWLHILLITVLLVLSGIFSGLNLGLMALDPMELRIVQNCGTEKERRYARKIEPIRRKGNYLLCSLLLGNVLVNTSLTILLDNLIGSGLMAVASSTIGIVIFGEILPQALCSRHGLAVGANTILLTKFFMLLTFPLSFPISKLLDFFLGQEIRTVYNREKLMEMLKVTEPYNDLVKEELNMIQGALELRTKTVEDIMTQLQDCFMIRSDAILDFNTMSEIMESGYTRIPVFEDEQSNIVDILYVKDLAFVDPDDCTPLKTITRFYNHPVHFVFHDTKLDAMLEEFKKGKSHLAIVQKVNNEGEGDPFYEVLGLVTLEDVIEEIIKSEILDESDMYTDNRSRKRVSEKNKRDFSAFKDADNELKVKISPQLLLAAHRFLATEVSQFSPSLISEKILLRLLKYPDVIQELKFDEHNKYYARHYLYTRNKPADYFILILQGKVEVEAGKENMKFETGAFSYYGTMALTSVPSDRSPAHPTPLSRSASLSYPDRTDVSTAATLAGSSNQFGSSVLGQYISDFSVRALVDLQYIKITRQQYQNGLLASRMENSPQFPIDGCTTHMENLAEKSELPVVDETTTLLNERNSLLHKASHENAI
As to the kind of experiment: co-IP; FLAG-CNNM isoforms individually expressed in HEK-293T cells and immunoprecipitated, blots for native CNNM isoforms (S16 Fig A-D).

Chains of the proteins cited; added tags and fusions are not shown.
UniProt Q9BX84: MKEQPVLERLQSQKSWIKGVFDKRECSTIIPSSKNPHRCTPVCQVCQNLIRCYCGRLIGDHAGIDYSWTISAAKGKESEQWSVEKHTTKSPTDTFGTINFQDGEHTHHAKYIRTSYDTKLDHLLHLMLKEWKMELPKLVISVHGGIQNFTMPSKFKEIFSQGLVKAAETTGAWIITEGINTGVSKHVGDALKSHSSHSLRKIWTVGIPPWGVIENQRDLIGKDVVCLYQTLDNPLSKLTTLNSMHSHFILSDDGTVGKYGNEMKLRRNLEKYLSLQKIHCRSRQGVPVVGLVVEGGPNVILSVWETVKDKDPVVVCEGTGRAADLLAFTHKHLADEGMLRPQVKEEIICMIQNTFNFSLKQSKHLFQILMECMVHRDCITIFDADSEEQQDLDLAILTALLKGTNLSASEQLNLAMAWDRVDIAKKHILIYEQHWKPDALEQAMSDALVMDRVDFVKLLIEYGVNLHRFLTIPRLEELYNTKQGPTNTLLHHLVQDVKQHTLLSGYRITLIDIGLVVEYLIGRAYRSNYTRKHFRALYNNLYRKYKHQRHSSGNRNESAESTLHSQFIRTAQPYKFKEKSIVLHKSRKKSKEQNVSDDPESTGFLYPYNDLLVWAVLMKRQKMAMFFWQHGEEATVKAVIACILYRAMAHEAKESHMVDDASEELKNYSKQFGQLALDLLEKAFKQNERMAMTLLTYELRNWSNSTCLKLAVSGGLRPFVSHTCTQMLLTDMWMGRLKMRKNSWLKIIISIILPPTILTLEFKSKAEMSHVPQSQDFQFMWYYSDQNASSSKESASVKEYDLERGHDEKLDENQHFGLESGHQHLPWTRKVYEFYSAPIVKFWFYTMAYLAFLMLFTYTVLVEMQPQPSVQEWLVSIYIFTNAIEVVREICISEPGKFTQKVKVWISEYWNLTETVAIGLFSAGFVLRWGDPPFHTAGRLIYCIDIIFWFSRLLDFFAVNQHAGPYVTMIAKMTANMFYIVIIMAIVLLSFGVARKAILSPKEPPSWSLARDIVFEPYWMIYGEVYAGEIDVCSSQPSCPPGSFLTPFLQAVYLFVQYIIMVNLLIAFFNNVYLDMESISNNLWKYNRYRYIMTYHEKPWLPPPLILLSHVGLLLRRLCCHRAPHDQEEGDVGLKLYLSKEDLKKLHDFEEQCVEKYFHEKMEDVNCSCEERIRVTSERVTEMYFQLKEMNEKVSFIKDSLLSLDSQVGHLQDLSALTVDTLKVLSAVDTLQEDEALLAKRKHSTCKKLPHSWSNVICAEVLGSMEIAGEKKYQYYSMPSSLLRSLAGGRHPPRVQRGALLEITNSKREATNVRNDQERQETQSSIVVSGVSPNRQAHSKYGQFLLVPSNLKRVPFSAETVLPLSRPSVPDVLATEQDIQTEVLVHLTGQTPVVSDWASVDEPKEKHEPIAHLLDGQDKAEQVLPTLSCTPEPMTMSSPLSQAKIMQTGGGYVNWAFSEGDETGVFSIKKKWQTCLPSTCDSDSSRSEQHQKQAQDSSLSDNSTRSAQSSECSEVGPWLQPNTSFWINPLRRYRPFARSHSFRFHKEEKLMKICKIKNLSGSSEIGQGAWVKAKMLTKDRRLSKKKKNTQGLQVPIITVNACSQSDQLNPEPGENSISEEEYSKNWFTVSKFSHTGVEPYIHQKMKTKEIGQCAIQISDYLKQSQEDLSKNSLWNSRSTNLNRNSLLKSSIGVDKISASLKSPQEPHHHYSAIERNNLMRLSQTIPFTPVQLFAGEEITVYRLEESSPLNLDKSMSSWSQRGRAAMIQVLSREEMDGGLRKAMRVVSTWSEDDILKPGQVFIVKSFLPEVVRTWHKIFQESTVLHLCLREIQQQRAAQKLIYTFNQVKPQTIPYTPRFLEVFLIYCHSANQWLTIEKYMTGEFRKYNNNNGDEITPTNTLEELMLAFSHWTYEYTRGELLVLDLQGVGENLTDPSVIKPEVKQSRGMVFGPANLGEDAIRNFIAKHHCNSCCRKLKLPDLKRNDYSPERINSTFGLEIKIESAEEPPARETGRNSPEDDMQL
UniProt Q923J1: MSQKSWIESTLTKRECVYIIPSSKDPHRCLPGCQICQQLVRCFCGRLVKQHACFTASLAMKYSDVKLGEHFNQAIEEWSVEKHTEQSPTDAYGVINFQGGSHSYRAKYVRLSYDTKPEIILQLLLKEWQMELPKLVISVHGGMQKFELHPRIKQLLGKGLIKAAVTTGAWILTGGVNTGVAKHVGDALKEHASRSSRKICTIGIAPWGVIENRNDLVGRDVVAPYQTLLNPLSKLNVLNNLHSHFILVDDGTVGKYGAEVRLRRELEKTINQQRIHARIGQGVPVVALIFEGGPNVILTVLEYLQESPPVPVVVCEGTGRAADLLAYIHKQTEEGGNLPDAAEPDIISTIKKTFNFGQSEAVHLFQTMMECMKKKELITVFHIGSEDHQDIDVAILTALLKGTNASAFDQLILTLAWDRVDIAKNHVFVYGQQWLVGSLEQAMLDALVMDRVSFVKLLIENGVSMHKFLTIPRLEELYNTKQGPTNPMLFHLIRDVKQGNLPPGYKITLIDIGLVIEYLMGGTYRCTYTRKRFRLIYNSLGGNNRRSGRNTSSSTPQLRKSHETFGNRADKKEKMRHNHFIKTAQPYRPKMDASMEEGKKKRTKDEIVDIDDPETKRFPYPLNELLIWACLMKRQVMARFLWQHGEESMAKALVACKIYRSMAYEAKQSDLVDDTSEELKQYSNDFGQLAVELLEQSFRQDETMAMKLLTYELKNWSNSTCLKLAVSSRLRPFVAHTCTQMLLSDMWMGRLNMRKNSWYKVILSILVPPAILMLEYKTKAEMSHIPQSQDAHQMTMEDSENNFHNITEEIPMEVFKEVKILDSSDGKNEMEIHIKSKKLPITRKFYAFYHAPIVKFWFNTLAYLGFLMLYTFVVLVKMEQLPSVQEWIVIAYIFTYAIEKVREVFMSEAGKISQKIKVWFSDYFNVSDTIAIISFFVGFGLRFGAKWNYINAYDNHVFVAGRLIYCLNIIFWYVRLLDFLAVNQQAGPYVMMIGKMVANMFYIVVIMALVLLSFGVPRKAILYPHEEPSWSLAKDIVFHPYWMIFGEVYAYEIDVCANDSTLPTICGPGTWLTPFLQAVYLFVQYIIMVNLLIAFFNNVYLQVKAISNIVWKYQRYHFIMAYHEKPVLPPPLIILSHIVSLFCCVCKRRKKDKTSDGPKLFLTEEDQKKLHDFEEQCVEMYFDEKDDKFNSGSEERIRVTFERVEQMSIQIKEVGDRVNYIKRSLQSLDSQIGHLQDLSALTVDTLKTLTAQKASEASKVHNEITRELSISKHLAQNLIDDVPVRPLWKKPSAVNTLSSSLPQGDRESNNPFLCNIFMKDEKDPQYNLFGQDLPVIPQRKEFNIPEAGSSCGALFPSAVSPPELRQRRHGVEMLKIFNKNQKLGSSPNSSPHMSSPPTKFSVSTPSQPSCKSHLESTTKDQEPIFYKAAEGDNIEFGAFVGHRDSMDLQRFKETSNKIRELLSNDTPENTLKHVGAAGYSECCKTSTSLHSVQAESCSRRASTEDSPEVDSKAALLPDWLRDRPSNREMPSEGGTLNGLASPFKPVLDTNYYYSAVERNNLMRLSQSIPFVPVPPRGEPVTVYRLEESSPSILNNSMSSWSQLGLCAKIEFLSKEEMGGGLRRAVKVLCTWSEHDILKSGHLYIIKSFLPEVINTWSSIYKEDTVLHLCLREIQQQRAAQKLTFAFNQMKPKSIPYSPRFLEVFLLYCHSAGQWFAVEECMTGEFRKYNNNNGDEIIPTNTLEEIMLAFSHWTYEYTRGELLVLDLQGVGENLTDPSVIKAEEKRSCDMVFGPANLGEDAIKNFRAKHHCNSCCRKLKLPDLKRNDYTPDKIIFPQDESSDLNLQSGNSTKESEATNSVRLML
UniProt O94759: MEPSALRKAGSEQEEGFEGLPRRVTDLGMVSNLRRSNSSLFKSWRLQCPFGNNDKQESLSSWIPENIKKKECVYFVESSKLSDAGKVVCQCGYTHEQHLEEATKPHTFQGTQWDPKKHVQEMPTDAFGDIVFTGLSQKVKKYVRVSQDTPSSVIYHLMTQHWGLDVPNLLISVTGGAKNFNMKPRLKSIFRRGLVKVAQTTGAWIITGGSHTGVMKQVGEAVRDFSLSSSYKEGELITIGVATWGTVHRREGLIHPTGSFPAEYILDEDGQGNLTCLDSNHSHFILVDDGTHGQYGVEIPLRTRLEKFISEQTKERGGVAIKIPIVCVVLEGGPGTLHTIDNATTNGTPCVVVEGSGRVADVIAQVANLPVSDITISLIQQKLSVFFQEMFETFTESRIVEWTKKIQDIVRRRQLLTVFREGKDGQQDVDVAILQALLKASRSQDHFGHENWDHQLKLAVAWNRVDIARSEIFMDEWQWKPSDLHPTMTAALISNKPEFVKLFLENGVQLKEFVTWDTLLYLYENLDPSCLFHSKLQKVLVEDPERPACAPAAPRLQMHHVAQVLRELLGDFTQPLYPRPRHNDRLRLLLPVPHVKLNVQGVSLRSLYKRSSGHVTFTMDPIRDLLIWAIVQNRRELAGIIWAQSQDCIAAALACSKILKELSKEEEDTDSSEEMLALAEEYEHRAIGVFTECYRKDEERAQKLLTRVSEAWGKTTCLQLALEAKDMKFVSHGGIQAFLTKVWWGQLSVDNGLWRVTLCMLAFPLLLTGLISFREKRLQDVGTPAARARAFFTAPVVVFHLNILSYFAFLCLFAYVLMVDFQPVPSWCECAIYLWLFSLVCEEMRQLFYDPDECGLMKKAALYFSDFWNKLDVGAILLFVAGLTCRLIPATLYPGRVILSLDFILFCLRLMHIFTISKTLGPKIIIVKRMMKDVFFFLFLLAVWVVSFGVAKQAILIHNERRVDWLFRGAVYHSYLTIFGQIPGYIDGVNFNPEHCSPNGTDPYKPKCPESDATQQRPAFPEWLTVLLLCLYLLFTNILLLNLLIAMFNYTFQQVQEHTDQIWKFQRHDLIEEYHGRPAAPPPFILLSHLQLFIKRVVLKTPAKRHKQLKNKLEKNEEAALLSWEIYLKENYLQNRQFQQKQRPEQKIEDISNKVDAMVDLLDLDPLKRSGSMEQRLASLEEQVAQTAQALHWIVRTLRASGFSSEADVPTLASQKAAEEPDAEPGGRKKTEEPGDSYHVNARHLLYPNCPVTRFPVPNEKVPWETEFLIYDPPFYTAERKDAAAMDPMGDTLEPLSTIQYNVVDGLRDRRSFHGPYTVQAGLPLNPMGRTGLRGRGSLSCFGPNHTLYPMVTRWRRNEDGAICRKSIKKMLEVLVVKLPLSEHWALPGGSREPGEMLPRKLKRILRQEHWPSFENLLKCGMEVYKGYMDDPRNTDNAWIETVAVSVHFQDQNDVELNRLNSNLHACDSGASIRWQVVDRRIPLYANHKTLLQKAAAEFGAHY
UniProt Q9NRU3: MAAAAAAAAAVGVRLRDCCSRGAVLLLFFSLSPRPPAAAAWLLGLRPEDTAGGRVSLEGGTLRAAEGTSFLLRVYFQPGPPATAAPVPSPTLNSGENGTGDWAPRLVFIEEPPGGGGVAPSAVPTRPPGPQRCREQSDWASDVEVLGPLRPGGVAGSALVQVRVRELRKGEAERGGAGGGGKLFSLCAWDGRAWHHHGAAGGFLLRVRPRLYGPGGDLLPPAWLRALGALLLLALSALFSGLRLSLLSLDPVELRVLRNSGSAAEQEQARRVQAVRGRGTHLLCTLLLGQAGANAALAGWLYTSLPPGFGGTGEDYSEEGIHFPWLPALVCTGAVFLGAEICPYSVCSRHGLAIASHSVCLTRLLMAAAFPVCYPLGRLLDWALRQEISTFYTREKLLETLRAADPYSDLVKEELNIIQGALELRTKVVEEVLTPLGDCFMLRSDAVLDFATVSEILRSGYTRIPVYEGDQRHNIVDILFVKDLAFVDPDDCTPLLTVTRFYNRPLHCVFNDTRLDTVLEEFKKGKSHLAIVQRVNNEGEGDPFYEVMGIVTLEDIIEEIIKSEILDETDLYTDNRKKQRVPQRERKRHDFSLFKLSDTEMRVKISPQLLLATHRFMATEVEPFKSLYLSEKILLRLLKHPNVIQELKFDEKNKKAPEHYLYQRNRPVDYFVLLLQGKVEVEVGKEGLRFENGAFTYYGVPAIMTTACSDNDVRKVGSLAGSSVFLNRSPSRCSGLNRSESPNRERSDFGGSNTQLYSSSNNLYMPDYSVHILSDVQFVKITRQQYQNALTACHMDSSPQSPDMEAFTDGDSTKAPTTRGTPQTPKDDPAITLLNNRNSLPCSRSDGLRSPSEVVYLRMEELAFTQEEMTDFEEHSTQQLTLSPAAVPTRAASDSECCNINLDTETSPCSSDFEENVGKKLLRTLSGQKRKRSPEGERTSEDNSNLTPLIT

Assay [5] deals with T2, FLAG-tagged mouse CNNM2 (pCMV-4A) (mouse) (UniProt Q3TWN3).
T2 sequence: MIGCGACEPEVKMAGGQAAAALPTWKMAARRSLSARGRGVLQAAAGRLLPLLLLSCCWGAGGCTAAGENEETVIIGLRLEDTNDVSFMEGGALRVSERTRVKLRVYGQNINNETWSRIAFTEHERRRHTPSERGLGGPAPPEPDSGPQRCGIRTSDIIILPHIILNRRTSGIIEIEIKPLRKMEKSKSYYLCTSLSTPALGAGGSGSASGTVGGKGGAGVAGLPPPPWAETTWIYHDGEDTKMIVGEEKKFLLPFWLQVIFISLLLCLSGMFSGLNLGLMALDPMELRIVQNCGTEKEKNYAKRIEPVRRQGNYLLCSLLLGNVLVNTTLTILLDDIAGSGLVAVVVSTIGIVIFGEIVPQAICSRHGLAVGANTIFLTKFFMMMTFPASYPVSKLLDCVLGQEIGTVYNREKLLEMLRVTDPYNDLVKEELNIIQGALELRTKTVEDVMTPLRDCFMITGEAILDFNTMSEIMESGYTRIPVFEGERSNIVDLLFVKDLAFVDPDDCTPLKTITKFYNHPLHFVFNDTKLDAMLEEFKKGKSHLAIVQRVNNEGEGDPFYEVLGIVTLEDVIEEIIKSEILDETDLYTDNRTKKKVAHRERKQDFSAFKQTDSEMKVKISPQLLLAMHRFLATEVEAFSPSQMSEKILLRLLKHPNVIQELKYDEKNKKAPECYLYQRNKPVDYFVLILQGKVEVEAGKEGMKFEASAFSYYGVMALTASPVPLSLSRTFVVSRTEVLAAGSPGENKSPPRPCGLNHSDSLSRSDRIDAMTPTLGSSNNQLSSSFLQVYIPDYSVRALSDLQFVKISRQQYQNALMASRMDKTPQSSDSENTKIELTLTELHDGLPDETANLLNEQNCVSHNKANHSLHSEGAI
Described as above.

The target of assay [6] is T3, native CNNM4 (endogenous, human cell lines) (human (endogenous in HEK-293, HEK-293T, Hela, HAP1, ZR-75-1)) (UniProt Q6P4Q7).
T3 sequence: T1 sequence
As to the kind of experiment: co-IP; immunoprecipitation of native CNNM3 or native CNNM4, blot for the other native isoform; anti-myc antibody as negative control; cells not named (S16 Fig E, F).

The target in assay [7] is HA-tagged mouse TRPM7 expressed from the recombinant adenovirus pAd/CMV/V5-SR-TRPM7 (Ad-TRPM7-HA) (mouse) (UniProt Q923J1). As to the kind of experiment: co-IP; HA-TRPM7 expressed in HAP1 cells by viral transduction (Ad-TRPM7-HA), immunoprecipitated with HA-agarose, blots for native CNNMs.
Assay [8] deals with HA-tagged TRPM7 (pcDNA5-FRT-TO-HA-TRPM7) (mouse) (UniProt Q923J1). As to the kind of experiment: co-IP; HA-TRPM7 transiently transfected into Hela cells, immunoprecipitated with HA-agarose, blots for native CNNMs.

Results are given in words; binding and its absence hold for the method and conditions named. In cells and extracts the contact can be indirect. Some entries that bind do so weakly or less than the wild type. For part of these data: Sequences can lack the tags named with a protein.

The text below walks through data of paper PMC8726484.

Consider “FLAG-tagged human CNNM1 (pCMV-4A) (from UniProt Q9NRU3 1-951)”, for which the binding result in assay [1] and in [2] was “binds” throughout.

B1: native CNNM3 (endogenous, human cell lines) (protein, UniProt Q8NE01 1-707)
chain: MAAAVAAAGRLGWLFAALCLGNAAGEAAPGPRVLGFCLEEDGAAGAGWVRGGAARDTPDATFLLRLFGPGFANSSWSWVAPEGAGCREEAASPAGEWRALLRLRLRAEAVRPHSALLAVRVEPGGGAAEEAAPPWALGLGAAGLLALAALARGLQLSALALAPAEVQVLRESGSEAERAAARRLEPARRWAGCALGALLLLASLAQAALAVLLYRAAGQRAVPAVLGSAGLVFLVGEVVPAAVSGRWTLALAPRALGLSRLAVLLTLPVALPVGQLLELAARPGRLRERVLELARGGGDPYSDLSKGVLRCRTVEDVLTPLEDCFMLDASTVLDFGVLASIMQSGHTRIPVYEEERSNIVDMLYLKDLAFVDPEDCTPLSTITRFYNHPLHFVFNDTKLDAVLEEFKRGKSHLAIVQKVNNEGEGDPFYEVLGLVTLEDVIEEIIRSEILDESEDYRDTVVKRKPASLMAPLKRKEEFSLFKVSDDEYKVTISPQLLLATQRFLSREVDVFSPLRISEKVLLHLLKHPSVNQEVRFDESNRLATHHYLYQRSQPVDYFILILQGRVEVEIGKEGLKFENGAFTYYGVSALTVPSSVHQSPVSSLQPIRHDLQPDPGDGTHSSAYCPDYTVRALSDLQLIKVTRLQYLNALLATRAQNLPQSPENTDLQVIPGSQTRLLGEKTTTAAGSSHSRPGVPVEGSPGRNPGV
For B1, the binding result with FLAG-TRPM2 is listed as “no binding”; in [3], “binds”; in [4], “binds”; in assay [5], “binds”; in [6], “binds”; in assay [7], “binds weakly”. Further, the binding entry in assay [8] is listed as “binds”.
